Data reported in PubChem BioAssay AID1956 (SRMLSC, 2009).
This is one part of the list. These are further read-outs of the screen, such as a control signal, another cell line or another target. No call is given for them.

assay: enhancers of HSV replication in host cells, fold increase, host cell viability (AID 1956); conditions: HSV replication augmentation in cells; fold increase: measured here: primary screen fold increase 10 uM, at 10 µM, stronger effect = higher value; viability: measured here: host cell viability series, at 25 µM, stronger effect = lower value; also: tested in PC3 cells

SMILES | fold increase | viability [%]
N#C/C(=C\Nc1ccc2cn[nH]c2c1)c1nc(-c2ccc(Cl)cc2)cs1 | 1.55 | 47.8
O=c1c2c([nH]n1-c1ccccc1)CCCC2 | 1.43 | 103
CCN(CC)c1ccc2cc(/C(N)=N/NC(=O)c3cccs3)c(=O)oc2c1 | 1.7 | 92.2
O=C(CC(SCCO)c1ccc2c(c1)OCO2)c1cccs1 (configuration not stated) | 1.43 | 83.4
Cc1cc2nc3c(=O)[nH]c(=O)[nH]c3nc2c([N+](=O)[O-])c1N | 1.47 | 101
N#C/C(=C\c1ccc(N2CCOCC2)o1)C(=O)Nc1ccc(O)cc1 | 4.08 | 80.7
O=c1cc(CO)oc(C(Nc2ccccn2)c2ccsc2)c1O (configuration not stated) | 1.68 | 96.8
CN1C(=O)/C(=C/C=C2\SCCN2C)OC1=S | 1.97 | 84.7
CC1CC(C)CN(C(=O)c2ccc3c(c2)N(Cc2ccccc2)CCS3)C1 (configuration not stated) | 1.33 | 97.4
CCOC(=O)c1nnsc1-c1ccc(-c2snnc2C(=O)OCC)cc1 | 1.41 | 99.6
COc1ccccc1NC(=O)c1ccc(C)s1 | 1.47 | 93.8
O=C(O)c1cc(-c2ccc(/C=C3/SC(=S)N(Cc4ccccc4)C3=O)o2)ccc1Cl | 1.89 | 92.1
CCN(CC)c1ccc2cc(-c3nc4ccccc4[nH]3)c(=O)oc2c1 | 7.07 | 83.6
c1ccc2c(c1)NCCS2 | 2.04 | 97.1
CN1C(=O)CC(c2ccco2)Sc2ccccc21 (configuration not stated) | 1.51 | 78.8
Cn1c(C(=O)Nc2ccc3c(c2)OCCO3)cc2c(=O)n(C)c3ccccc3c21 | 1.33 | 77.3
COC(=O)C[n+]1cccc2ccccc21 | 2.07 | 105
CC(=O)Nc1ccc(C(=O)Cn2nnc3ccccc3c2=O)cc1 | 1.35 | 94.8
O=C(CSc1nc2ccccc2s1)NNC(=S)Nc1ccc(Cl)cc1 | 1.35 | –
CN(C)C(=N)c1n[nH]nc1SCc1ccc(Cl)c(Cl)c1 | 1.36 | 83.6
CCOC(=O)C(NC(=O)c1ccc(F)cc1)(Nc1sc2c(c1C(N)=O)CCC2)C(F)(F)F (configuration not stated) | 1.68 | 89.9
CC1=CC(C)(C)Nc2ccc(OC(=O)C(Cc3ccccc3)N3C(=O)C4CCCCC4C3=O)cc21 (configuration not stated) | 1.32 | 97.2
COCCCNC(=O)CC(=O)N/N=C\c1ccc(SC)cc1 | 1.32 | –
CCc1cccc(CC)c1NC(=S)NCc1nc2ccccc2[nH]1 | 1.39 | 102

SMILES | fold increase | viability [%]
CC(C)c1nnc(N2C(=O)C(O)=C(C(=O)c3cccs3)C2c2ccccc2)s1 (configuration not stated) | 8.21 | 98.5
COc1cc(C(=O)NCCC(=O)NCCN2CCOCC2)cc(OC)c1OC | 1.51 | 99.5
O=C(/C=C/c1ccco1)Nc1cccc2cccnc12 | 1.43 | 99.4
CC(C)N1CC=C2C(C#N)=C(N)C(C#N)(C#N)[C@H](c3ccoc3)[C@H]2C1 | 1.26 | –
CCN1CC=C2C(C#N)=C(N)C(C#N)(C#N)[C@H](c3ccoc3)[C@H]2C1 | 1.65 | 87.5
O=C1C(=O)N(c2ccccc2)c2ccccc21 | 1.33 | 94.9
OCCCc1nc2n(n1)C(c1cccs1)C=C(c1ccccc1)N2 (configuration not stated) | 2.69 | 87.5
CN1CCc2c(sc3c2C(=O)NC(c2cn(Cc4ccccc4)c4ccccc24)N3)C1 (configuration not stated) | 1.34 | 83.8
COc1cc(NC(=S)N2CCN(C(c3ccccc3)c3ccccc3)CC2)cc(OC)c1 | 1.5 | –
Cc1cccc(N=C2NC(=O)/C(=C/C=C/c3ccco3)S2)c1 | 1.33 | 69.8
Cc1ccc2nc(SCC(=O)Nc3ccc4sc(C)nc4c3)c(C#N)cc2c1 | 2.49 | 91.4
Cc1ccc(S(=O)(=O)N2CCC[C@H]2C(=O)OCC(=O)c2ccc3c(c2)NC(=O)CO3)cc1 | 1.46 | 96.1
O=C(CCN1C(=O)/C(=C\c2cccs2)SC1=S)Nc1ccccn1 | 1.39 | 92.4
CC(C)CC1=NN2C(=N)/C(=C\c3coc4ccccc4c3=O)C(=O)N=C2S1 | 1.67 | 97.5
CCOC(=O)C1=C(CSc2nc(-c3ccccc3)ccc2C#N)OC(N)=C(C#N)C1c1ccccc1 (configuration not stated) | 1.51 | 108
Cc1cccc(S(=O)(=O)c2c(N)n(Cc3ccco3)c3nc4ccccc4nc23)c1 | 2.01 | 90.4
CN1\C(=C/C=C/C=C/C=[N+](C)C)C(C)(C)c2ccccc21 | 2.06 | 54.9
CCN(CC)c1ccc(/C=C/C(=O)C2C(=O)C=C(C)OC2=O)cc1 (configuration not stated) | 8.97 | –
COc1ccc(S(=O)(=O)C(C#N)c2nc3ccccc3nc2N2CCCC(C)C2)cc1 (configuration not stated) | 2.32 | 96
O=c1nc2c(O)cccn2c2c1c(=O)[nH]c1ccccc12 | 1.85 | –
CCOC(=O)c1cnc(SCc2nc(N)nc(Nc3ccccc3)n2)nc1N | 1.01 | –
Cc1nc(S/C(=C\c2ccc(-c3ccc(C(=O)O)c(Cl)c3)o2)C(=O)O)n[nH]1 | 1.44 | 97.8
CCC1OC2(C)OC(=N)C1(C#N)C(C#N)(C#N)C2c1ccccc1 (configuration not stated) | 1.44 | 97.4
